Assay results as given in the supplement of paper PMC8728848.
The list shows a part of the results.

How the values were obtained:
Assay in all cases: glycan array binding signal (z-score within array); higher = stronger binding
Conditions in all cases: glycan notation: IUPAC condensed, linker removed
[1] = molecular target: Neu5Ac(a2-3)Gal(b1-3)GlcNAc6S
Summary of the method: (§1)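 Glycan array data were curated from 3228 arrays in the Consortium for Functional Glycomics database and kept only where the protein sequence was available. Glycan names were converted to IUPAC-condensed notation, and columns mapping to the same glycan were averaged. The binding signal is a within-array Z-score, averaged across arrays of the same protein sequence at different concentrations or buffers and across linkers. Negative Z-scores can be read as non-binding.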

[2] = molecular target: Neu5Ac(a2-3)Gal(b1-3)[Fuc(a1-4)]GlcNAc
Summary of the method: as §1

[3] = molecular target: Neu5Ac(a2-3)Gal(b1-3)[Fuc(a1-4)]GlcNAc(b1-3)Gal(b1-3)[Fuc(a1-4)]GlcNAc
Summary of the method: as §1

[4] = molecular target: Neu5Ac(a2-3)Gal(b1-3)[Fuc(a1-4)]GlcNAc(b1-3)Gal(b1-4)[Fuc(a1-3)]GlcNAc
Summary of the method: as §1

[5] = molecular target: Neu5Ac(a2-3)Gal(b1-3)[GlcNAc(b1-6)]GalNAc
Summary of the method: as §1

[6] = molecular target: Neu5Ac(a2-3)Gal(b1-3)[Neu5Ac(a2-6)]GalNAc
Summary of the method: as §1

[7] = molecular target: Neu5Ac(a2-3)Gal(b1-3)[Neu5Ac(a2-6)]GlcNAc(b1-3)[Fuc(a1-3)[Gal(b1-4)]GlcNAc(b1-6)]Gal(b1-4)Glc
Summary of the method: as §1

[8] = molecular target: Neu5Ac(a2-3)Gal(b1-3)]Neu5Ac(a2-3)Gal(b1-4)]GlcNAc
Summary of the method: as §1

Neu5Ac(a2-3)Gal(b1-4)Glc = molecular target: Neu5Ac(a2-3)Gal(b1-4)Glc
Summary of the method: as §1

[9] = molecular target: Neu5Ac(a2-3)Gal(b1-4)GlcNAc
Summary of the method: as §1

[10] = molecular target: Neu5Ac(a2-3)Gal(b1-4)GlcNAc(b1-2)Man
Summary of the method: as §1

[11] = molecular target: Neu5Ac(a2-3)Gal(b1-4)GlcNAc(b1-2)Man(a1-3)[GlcNAc(b1-4)][Neu5Ac(a2-3)Gal(b1-4)GlcNAc(b1-2)Man(a1-6)]Man(b1-4)GlcNAc(b1-4)GlcNAc
Summary of the method: as §1

[12] = molecular target: Neu5Ac(a2-3)Gal(b1-4)GlcNAc(b1-2)Man(a1-3)[Neu5Ac(a2-3)Gal(b1-4)GlcNAc(b1-2)Man(a1-6)]Man(b1-4)GlcNAc(b1-4)GlcNAc
Summary of the method: as §1

[13] = molecular target: Neu5Ac(a2-3)Gal(b1-4)GlcNAc(b1-2)Man(a1-3)[Neu5Ac(a2-3)Gal(b1-4)GlcNAc(b1-2)Man(a1-6)]Man(b1-4)GlcNAc(b1-4)[Fuc(a1-6)]GlcNAc
Summary of the method: as §1

[14] = molecular target: Neu5Ac(a2-3)Gal(b1-4)GlcNAc(b1-2)Man(a1-3)[Neu5Ac(a2-6)Gal(b1-4)GlcNAc(b1-2)Man(a1-6)]Man(b1-4)GlcNAc(b1-4)GlcNAc
Summary of the method: as §1

[15] = molecular target: Neu5Ac(a2-3)Gal(b1-4)GlcNAc(b1-2)[Neu5Ac(a2-3)Gal(b1-4)GlcNAc(b1-4)]Man(a1-3)[GlcNAc(b1-4)][Neu5Ac(a2-3)Gal(b1-4)GlcNAc(b1-2)[Neu5Ac(a2-3)Gal(b1-4)GlcNAc(b1-6)]Man(a1-6)]Man(b1-4)GlcNAc(b1-4)GlcNAc
Summary of the method: as §1

[16] = molecular target: Neu5Ac(a2-3)Gal(b1-4)GlcNAc(b1-2)[Neu5Ac(a2-3)Gal(b1-4)GlcNAc(b1-4)]Man(a1-3)[GlcNAc(b1-4)][Neu5Ac(a2-3)Gal(b1-4)GlcNAc(b1-4)Man(a1-6)]Man(b1-4)GlcNAc(b1-4)GlcNAc
Summary of the method: as §1

[17] = molecular target: Neu5Ac(a2-3)Gal(b1-4)GlcNAc(b1-2)[Neu5Ac(a2-3)Gal(b1-4)GlcNAc(b1-6)]Man(a1-6)[Neu5Ac(a2-3)Gal(b1-4)GlcNAc(b1-2)Man(a1-3)][GlcNAc(b1-4)]Man(b1-4)GlcNAc(b1-4)GlcNAc
Summary of the method: as §1

[18] = molecular target: Neu5Ac(a2-3)Gal(b1-4)GlcNAc(b1-3)Gal
Summary of the method: as §1

[19] = molecular target: Neu5Ac(a2-3)Gal(b1-4)GlcNAc(b1-3)Gal(b1-3)GlcNAc
Summary of the method: as §1

[20] = molecular target: Neu5Ac(a2-3)Gal(b1-4)GlcNAc(b1-3)Gal(b1-4)GlcNAc
Summary of the method: as §1

[21] = molecular target: Neu5Ac(a2-3)Gal(b1-4)GlcNAc(b1-3)Gal(b1-4)GlcNAc(b1-2)Man(a1-3)[Neu5Ac(a2-3)Gal(b1-4)GlcNAc(b1-3)Gal(b1-4)GlcNAc(b1-2)Man(a1-6)]Man(b1-4)GlcNAc(b1-4)GlcNAc
Summary of the method: as §1

[22] = molecular target: Neu5Ac(a2-3)Gal(b1-4)GlcNAc(b1-3)Gal(b1-4)GlcNAc(b1-3)Gal(b1-4)GlcNAc
Summary of the method: as §1

[23] = molecular target: Neu5Ac(a2-3)Gal(b1-4)GlcNAc(b1-3)Gal(b1-4)GlcNAc(b1-3)Gal(b1-4)GlcNAc(b1-2)Man(a1-3)[Neu5Ac(a2-3)Gal(b1-4)GlcNAc(b1-3)Gal(b1-4)GlcNAc(b1-3)Gal(b1-4)GlcNAc(b1-2)Man(a1-6)]GalNAc
Summary of the method: as §1

[24] = molecular target: Neu5Ac(a2-3)Gal(b1-4)GlcNAc(b1-3)Gal(b1-4)GlcNAc(b1-3)GalNAc
Summary of the method: as §1

[25] = molecular target: Neu5Ac(a2-3)Gal(b1-4)GlcNAc(b1-3)Gal(b1-4)GlcNAc(b1-3)[Neu5Ac(a2-3)Gal(b1-4)GlcNAc(b1-3)Gal(b1-4)GlcNAc(b1-6)]GalNAc
Summary of the method: as §1

[26] = molecular target: Neu5Ac(a2-3)Gal(b1-4)GlcNAc(b1-3)Gal(b1-4)GlcNAc(b1-6)[Gal(b1-3)]GalNAc
Summary of the method: as §1

[27] = molecular target: Neu5Ac(a2-3)Gal(b1-4)GlcNAc(b1-3)Gal(b1-4)[Fuc(a1-3)]GlcNAc
Summary of the method: as §1

[28] = molecular target: Neu5Ac(a2-3)Gal(b1-4)GlcNAc(b1-3)GalNAc
Summary of the method: as §1

[29] = molecular target: Neu5Ac(a2-3)Gal(b1-4)GlcNAc(b1-3)[Neu5Ac(a2-3)Gal(b1-4)GlcNAc(b1-6)]GalNAc
Summary of the method: as §1

[30] = molecular target: Neu5Ac(a2-3)Gal(b1-4)GlcNAc(b1-6)GalNAc
Summary of the method: as §1

[31] = molecular target: Neu5Ac(a2-3)Gal(b1-4)GlcNAc(b1-6)[Gal(b1-3)]GalNAc
Summary of the method: as §1

[32] = molecular target: Neu5Ac(a2-3)Gal(b1-4)GlcNAc(b1-6)[Neu5Ac(a2-3)Gal(b1-3)]GalNAc
Summary of the method: as §1

[33] = molecular target: Neu5Ac(a2-3)Gal(b1-4)GlcNAc6S
Summary of the method: as §1

[34] = molecular target: Neu5Ac(a2-3)Gal(b1-4)[Fuc(a1-3)]GlcNAc
Summary of the method: as §1

[35] = molecular target: Neu5Ac(a2-3)Gal(b1-4)[Fuc(a1-3)]GlcNAc(b1-2)Man
Summary of the method: as §1

[36] = molecular target: Neu5Ac(a2-3)Gal(b1-4)[Fuc(a1-3)]GlcNAc(b1-3)Gal
Summary of the method: as §1

[37] = molecular target: Neu5Ac(a2-3)Gal(b1-4)[Fuc(a1-3)]GlcNAc(b1-3)Gal(b1-4)GlcNAc
Summary of the method: as §1

[38] = molecular target: Neu5Ac(a2-3)Gal(b1-4)[Fuc(a1-3)]GlcNAc(b1-3)Gal(b1-4)[Fuc(a1-3)]GlcNAc(b1-3)Gal(b1-4)[Fuc(a1-3)]GlcNAc
Summary of the method: as §1

[39] = molecular target: Neu5Ac(a2-3)Gal(b1-4)[Fuc(a1-3)]GlcNAc(b1-3)GalNAc
Summary of the method: as §1

[40] = molecular target: Neu5Ac(a2-3)Gal(b1-4)[Fuc(a1-3)]GlcNAc(b1-6)[Gal(b1-3)]GalNAc
Summary of the method: as §1

[41] = molecular target: Neu5Ac(a2-3)Gal(b1-4)[Fuc(a1-3)]GlcNAc(b1-6)[Neu5Ac(a2-3)Gal(b1-3)]GalNAc
Summary of the method: as §1

[42] = molecular target: Neu5Ac(a2-3)Gal(b1-4)[Fuc(a1-3)]GlcNAc6S
Summary of the method: as §1

[43] = molecular target: Neu5Ac(a2-3)Gal6S(b1-4)GlcNAc
Summary of the method: as §1

[44] = molecular target: Neu5Ac(a2-3)Gal6S(b1-4)[Fuc(a1-3)]GlcNAc
Summary of the method: as §1

B1: LecB PA14 (Pseudomonas aeruginosa) (protein)
chain: MATQGVFTLPANTQFGVTAFANSAGTQTVNVQVNNETVATFTGQSTNNAIIGSKVLNSGGGGKVQILVSVNGRSSDLVSAQVILANELNFALVGSEDSTDNDYNDAVVVINWPLG
glycan array binding signal (z-score) [1]: -0.181 | glycan array binding signal (z-score) [2]: 2.44 | glycan array binding signal (z-score) [3]: 3.3 | glycan array binding signal (z-score) [4]: 1.72 | glycan array binding signal (z-score) [5]: -0.817 | glycan array binding signal (z-score) [6]: -0.618 | glycan array binding signal (z-score) [7]: -0.249 | glycan array binding signal (z-score) [8]: 0.029 | glycan array binding signal (z-score) (Neu5Ac(a2-3)Gal(b1-4)Glc): -0.458 | glycan array binding signal (z-score) [9]: -0.56 | glycan array binding signal (z-score) [10]: -0.409 | glycan array binding signal (z-score) [11]: -0.447 | glycan array binding signal (z-score) [12]: -0.749 | glycan array binding signal (z-score) [13]: -0.276 | glycan array binding signal (z-score) [14]: 2.48 | glycan array binding signal (z-score) [15]: 0.358 | glycan array binding signal (z-score) [16]: -0.551 | glycan array binding signal (z-score) [17]: -0.506 | glycan array binding signal (z-score) [18]: -0.718 | glycan array binding signal (z-score) [19]: -0.354 | glycan array binding signal (z-score) [20]: -0.721 | glycan array binding signal (z-score) [21]: -0.475 | glycan array binding signal (z-score) [22]: -0.643 | glycan array binding signal (z-score) [23]: -0.275 | glycan array binding signal (z-score) [24]: -0.535 | glycan array binding signal (z-score) [25]: -0.427 | glycan array binding signal (z-score) [26]: -0.385 | glycan array binding signal (z-score) [27]: -0.854 | glycan array binding signal (z-score) [28]: -0.353 | glycan array binding signal (z-score) [29]: -0.521 | glycan array binding signal (z-score) [30]: 0.011 | glycan array binding signal (z-score) [31]: 0.148 | glycan array binding signal (z-score) [32]: -0.723 | glycan array binding signal (z-score) [33]: -0.693 | glycan array binding signal (z-score) [34]: -0.158 | glycan array binding signal (z-score) [35]: 0.26 | glycan array binding signal (z-score) [36]: 0.275 | glycan array binding signal (z-score) [37]: 0.709 | glycan array binding signal (z-score) [38]: 2.09 | glycan array binding signal (z-score) [39]: -0.174 | glycan array binding signal (z-score) [40]: 0.201 | glycan array binding signal (z-score) [41]: -0.054 | glycan array binding signal (z-score) [42]: 0.335 | glycan array binding signal (z-score) [43]: -0.313 | glycan array binding signal (z-score) [44]: -0.517
